Data as given in the supplement of paper PMC3334620.
Over roughly 33,000 sequences, “E-score (-0.5 to 0.5)” has its median near -0.016; the highest 2% begin near 0.31. This is one part of the list.

Each sequence was assayed against Cst6 (UniProt P40535) (assay: PBM E-score (8-mer binding enrichment) (E-score (-0.5 to 0.5)); higher = stronger / more preferred TF binding; most listed sequences are background and not binding sites). Settings: protein concentration: 200 nM; construct: GST-DNA-binding domain.
Summary of the method: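 Full-length yeast transcription factors or their DNA-binding domains, GST-tagged and expressed with PURExpress, were applied at about 100-200 nM to universal all-10-mer Agilent arrays. These arrays had been made double-stranded by primer extension on fresh or once-stripped slides. Detection used fluorescent anti-GST, normalisation used masliner, and E-scores for ungapped eight-base words pooled with reverse complements came from the Universal PBM Analysis Suite.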

Row | Sequence | PBM E-score
1 | AAATCCTA | 0.0429
2 | AGAACCGG | -0.163
3 | ACGCCTCC | -0.0928
4 | ATCCCCAG | -0.195
5 | ACCCGACG | -0.106
6 | CATAGGAG | -0.0603
7 | ACTAACCA | 0.0689
8 | GCGCCTAA | 0.106
9 | AGAGATTA | 0.166
10 | TCAGGCCA | -0.092
11 | AGTGTTAG | -0.00863
12 | AGTCATTG | 0.0787
13 | CCACGGCA | 0.235
14 | TAAGGCAA | 0.105
15 | ATACCTTA | 0.0235
16 | AGATACCA | 0.117
17 | AGCGGAAA | 0.062
18 | ACTCTCAT | -0.0608
19 | CCATGTAA | 0.0285
20 | GGCTGTCA | -0.152
21 | ACAGGGAG | -0.0732
22 | CCGAACTC | -0.109
23 | AGTGCAGG | -0.117
24 | GGGGTTAC | -0.15
25 | CTTGGACC | -0.372

Row | Sequence | PBM E-score
26 | CGGGAATA | 0.0392
27 | AGCAGAAC | -0.0649
28 | GACCATAC | -0.0669
29 | GGCGACCC | -0.387
30 | CGTATTGC | 0.0567
31 | ACGTTGGC | -0.103
32 | GACTGGTA | -0.111
33 | AGCACTTG | -0.262
34 | AAACGCAG | 0.00743
35 | AAGTTCAG | -0.0271
36 | CGCTGACC | -0.0695
37 | AGTTAAGA | 0.161
38 | ACCTTCCC | -0.261
39 | CTAGCACC | -0.105
40 | CAAGTGTA | -0.0263
41 | GCGCGCAA | 0.0621
42 | CTACTATA | 0.0554
43 | ACAAGGAA | 0.0873
44 | ACAATCCC | -0.0598
45 | AAGTTGGT | 0.0462
46 | AGTACTCA | -0.0616
47 | GTACCGGA | -0.0963
48 | GGGGGTTA | -0.335
49 | CCGGGATA | -0.0818
50 | CGCCGTCC | 0.249

Row | Sequence | PBM E-score
51 | CTATGTGC | 0.0139
52 | CGGGCGAC | -0.319
53 | AGTCGTGA | -0.0872
54 | CCGGTCTC | -0.364
55 | AGCATGCG | 0.0753
56 | ACTAGAGA | -0.0352
57 | AGCGTGGC | -0.15
58 | CTGTCGGC | -0.198
59 | CCAGCTGC | -0.302
60 | GATTTGAC | 0.148
61 | AATCTATG | 0.151
62 | ATAAGCTC | -0.0286
63 | CGAAACCC | -0.122
64 | ACACGCTG | 0.0359
65 | CATAGTTA | 0.041
66 | ACTTCGCT | 0.0091
67 | ATAGCCCA | -0.0798
68 | CCCCGCGA | -0.342
69 | CCCTGACA | -0.142
70 | CGGAGGTC | -0.146
71 | TACAACGA | 0.0528
72 | CAATTTGA | 0.131
73 | GAGGACAA | -0.137
74 | GCTCAGCC | -0.284
75 | GGGACCAA | -0.116

Row | Sequence | PBM E-score
76 | CAAACTAA | 0.277
77 | AAGGATTC | -0.106
78 | CCTTACAA | -0.0094
79 | AGTAGTAG | -0.0792
80 | AATATACT | 0.0947
81 | ACTTGCCC | -0.215
82 | GAGGGGCC | -0.32
83 | CTCCGCCA | -0.196
84 | CGATCCCG | -0.31
85 | TATGGTGA | 0.186
86 | CCGCCACA | -0.196
87 | CTTTTTCC | 0.0424
88 | AGATATAT | 0.206
89 | CGCCAACC | -0.209
90 | GGTAGAAA | 0.0718
91 | GCATCTCC | -0.164
92 | ACACTCTC | -0.0948
93 | AGCGAAAC | 0.193
94 | AGGGTATC | -0.0868
95 | AACACGTC | 0.199
96 | AACAACCT | -0.0341
97 | GCAGCTAC | 0.0861
98 | AAGATTTA | 0.204
99 | CGCCTAAA | -0.092
100 | AGGTCAGC | -0.0262

Row | Sequence | PBM E-score
101 | CCCATGCG | -0.0581
102 | TATATCAA | 0.206
103 | ATAGATCG | -0.0649
104 | CACGCAGC | -0.14
105 | AATACTTG | 0.176
106 | AGTACGTC | 0.205
107 | CAAGTTAG | -0.0811
108 | CTCTAAAA | 0.156
109 | GAGTTTCA | -0.0691
110 | CCACGCGC | -0.238
111 | CCGTTGTA | 0.0324
112 | GCGTGTAC | -0.0456
113 | GATTTCGC | 0.176
114 | AGTGACCC | -0.164
115 | ATTGATCA | 0.18
116 | AATATCGC | 0.0782
117 | CGCGATTA | 0.184
118 | CCCAAACA | 0.0193
119 | AAAATATC | 0.164
120 | AGAATAAC | 0.024
121 | CGGTACAA | 0.0379
122 | AGTCCATG | -0.23
123 | ACCTGAAC | -0.2
124 | GCTGATCC | -0.128
125 | GCCGTCGA | 0.0868

Row | Sequence | PBM E-score
126 | TCACCCAA | 0.22
127 | CAACCACC | -0.251
128 | GGCTCCCA | -0.335
129 | ATTGCCGC | 0.205
130 | ATGGAGGG | -0.259
131 | AAGATGGG | -0.0638
132 | CGTTCTAA | 0.0559
133 | GAGGTCGA | -0.119
134 | GTGGATAA | -0.088
135 | AAACAACG | 0.0413
136 | AGGCCTTG | -0.249
137 | CGGTAGAG | -0.106
138 | CGGCCCGC | -0.106
139 | AGGCTGGC | -0.195
140 | AGAAGCCT | 0.0248
141 | CGCGAGAG | -0.189
142 | ACGGAAAA | 0.0205
143 | AACCGGAC | -0.119
144 | ATGGTCAC | -0.00469
145 | AGTCACAT | 0.0935
146 | TGTGGTAA | 0.142
147 | CTCACAAC | 0.137
148 | TAATCGGA | 0.0806
149 | ATCCTCGA | 0.0819
150 | CGTTAAGA | 0.144

Row | Sequence | PBM E-score
151 | AGGCCGCC | -0.161
152 | ACCGGCCA | -0.268
153 | GAGATCCC | -0.151
154 | AATGGATC | 0.00182
155 | GAGATAAA | 0.0874
156 | ACCTCAGA | -0.0614
157 | AGGCAGTG | 0.071
158 | ACCTCTCG | -0.215
159 | ATGTAGCG | -0.21
160 | ATAGAGGA | -0.238
161 | ACATTCCA | 0.00508
162 | TGCTTCAA | -0.00788
163 | ACCTGCCA | -0.179
164 | GGCTGCAA | -0.0257
165 | ATCCCAGA | -0.267
166 | CCACAGAG | -0.098
167 | TCTATGAA | 0.107
168 | CCAAAACA | -0.0682
169 | TCCCGTCA | 0.0641
170 | CTCCACAG | -0.266
171 | AATCGAGG | -0.0275
172 | AATGTCTG | -0.118
173 | CGCGATGA | 0.29
174 | AAAACCGA | 0.0246
175 | AGCAGGGA | -0.264

Row | Sequence | PBM E-score
176 | ATTAATCA | 0.265
177 | TCATGACA | 0.392
178 | CCTGAAGA | -0.0364
179 | GAACGACC | -0.233
180 | ATGTACCC | -0.101
181 | ACAACCAG | 0.0122
182 | CAAGTGAG | -0.162
183 | AATAGAGT | -0.0923
184 | CAATGTAA | 0.213
185 | TAAAACGA | -0.143
186 | AGAAGAAC | -0.0619
187 | CGCATGAA | 0.0343
188 | AATGTATC | 0.196
189 | CACACACA | 0.0924
190 | AGGCACAT | 0.168
191 | CTACACGA | 0.0631
192 | AAACATCC | 0.0423
193 | ATGGCAAA | 0.0895
194 | AACATGAG | 0.015
195 | CTAACTAG | 0.0585
196 | GCGTCGAA | 0.079
197 | CCTGCGAA | -0.0256
198 | CAGCAGAA | -0.0187
199 | CCCATCCC | -0.227
200 | CCTATCCA | -0.217

Row | Sequence | PBM E-score
201 | CCGGAGCC | -0.15
202 | ATACGATA | 0.164
203 | GCCTGGCC | -0.347
204 | ACCTTGAA | -0.0567
205 | GACTATGC | -0.0831
206 | AAGCCTTG | 0.0508
207 | ACGTAAGT | 0.422
208 | AAATTACG | 0.336
209 | ACGAACTG | -0.187
210 | AGGGATGC | -0.355
211 | ACTATGAC | 0.264
212 | ATTTGTCG | 0.132
213 | AACGTATG | 0.255
214 | ACCACCCG | -0.156
215 | TACGGGAA | -0.242
216 | AGGAGTTA | -0.0453
217 | CGGGAGAA | -0.177
218 | CAAGAGGG | -0.189
219 | ATGGATGA | 0.0833
